Measured values: US20180362604A1 (SHIRE HUMAN GENETIC THERAPIES, published 2018)

Legend:
BMP-10 = target: T1, BMP-10 (UniProt O95393 317-424); assay: SPR (BIAcore), anti-human Fc capture, BMP-10 as analyte
T1 construct: bought protein; also called bone morphogenic protein-10
T1 sequence (looked up): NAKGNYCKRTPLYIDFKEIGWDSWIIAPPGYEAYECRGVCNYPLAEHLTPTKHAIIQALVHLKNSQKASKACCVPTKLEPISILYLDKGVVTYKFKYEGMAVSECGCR

Myostatin [1] = target: T2, Myostatin (UniProt O14793 267-375); assay: SPR
T2 construct: bought protein; also called GDF-8; MST
T2 sequence (looked up): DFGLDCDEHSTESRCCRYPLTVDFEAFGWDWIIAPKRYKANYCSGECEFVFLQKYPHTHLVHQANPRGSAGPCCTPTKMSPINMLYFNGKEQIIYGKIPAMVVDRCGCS

Myostatin [2] = target: T2, Myostatin; assay: SPR (BIAcore), anti-human Fc capture, myostatin as analyte
Activin A = target: T3, Activin A (UniProt P08476 311-426); assay: cell-based or functional assay
T3 sequence (looked up): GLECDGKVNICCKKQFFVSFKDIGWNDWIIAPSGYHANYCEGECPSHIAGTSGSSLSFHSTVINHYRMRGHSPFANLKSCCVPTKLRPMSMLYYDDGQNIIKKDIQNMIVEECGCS

Myostatin [3] = target: T2, Myostatin; assay: cell-based or functional assay
Myostatin [4] = target: T2, Myostatin; assay: SPR; remark: listed apart in the source

- binding result (BMP-10): no binding (tested: 25-0.190 nM)
- fold reduction in binding affinity compared to wild type (Myostatin [1]): 3 fold
- Kd (Myostatin [2]): 0.0571 nM
- activin inhibition, SMAD2/3 luciferase reporter assay in A204 cells, fold reduction compared to wild type (Activin A): ~5 fold
- myostatin inhibition, SMAD2/3 luciferase reporter assay in A204 cells, fold reduction compared to wild type (Myostatin [3]): ~20 fold
- Kd (Myostatin [4]): 0.0571 nM
B1: FS315(del75-86)-hFcLALA (Fc fusion)
chain: GNCWLRQAKNGRCQVLYKTELSKEECCSTGRLSTSWTEEDVNDNTLFKWMIFNGGAPNCIPCKETCENVDCGPGCVCAPDCSNITWKGPVCGLDGKTYRNECALLKARCKEQPELEVQYQGRCKKTCRDVFCPGSSTCVVDQTNNAYCVTCNRICPEPASSEQYLCGNDGVTYSSACHLRKATCLLGRSIGLAYEGKCIKAKSCEDIQCTGGKKCLWDFKVGRGRCSLCDELCPDSKSDEPVCASDNATYASECAMKEAACSSGVLLEVKHSGSCNSISEDTEEEEEDEDQDYSFPISSILEW[here human IgG1 Fc with changes without letters]
notes: also called HBS deletion variant
